Test results published in the antibiotic and cytotoxicity screens of Wong et al. (2023).
This is one part of the list.

How the values were obtained:
HSkMC = human skeletal muscle cells; test: cytotoxicity call (relative viability < 0.9); conditions: 10 µM
HepG2 = test: cytotoxicity call (relative viability < 0.9); conditions: 10 µM
S. aureus RN4220 = test: growth inhibition call (relative growth <= 0.2); conditions: 50 µM

| Compound | cytotoxicity call (HSkMC) | cytotoxicity call (HepG2) | growth inhibition call (S. aureus RN4220) |
| --- | --- | --- | --- |
| Cc1noc(C)c1S(=O)(=O)Nc1cccc2c1O[C@@H](CN(C)C(=O)Nc1ccccc1)[C@@H](C)CN([C@H](C)CO)C2=O | inactive | inactive | inactive |
| COCC#Cc1ccc2c(c1)O[C@@H](CN(C)C(=O)Nc1ccccc1F)[C@@H](C)CN([C@@H](C)CO)S2(=O)=O | inactive | inactive | inactive |
| Cc1cc(C)c(-n2cccc2CN)c(C)c1 | inactive | inactive | inactive |
| C[C@H]1CN([C@@H](C)CO)C(=O)c2cc(NS(C)(=O)=O)ccc2O[C@@H]1CN(C)C(=O)NC1CCCCC1 | inactive | inactive | inactive |
| C[C@H]1CN([C@@H](C)CO)C(=O)c2cccc(NC(=O)c3cnccn3)c2O[C@@H]1CN(C)Cc1ccc2c(c1)OCO2 | inactive | inactive | inactive |
| O=C1OC(=O)[C@H]2[C@@H]1[C@H]1CC[C@H]2O1 | inactive | active | inactive |
| C[C@@H]1CCCCO[C@@H](CN(C)Cc2ccc(Cl)c(Cl)c2)[C@H](C)CN([C@H](C)CO)C(=O)c2cc(NS(=O)(=O)c3cccs3)ccc2O1 | inactive | inactive | inactive |
| C[C@H]1CC/C=C\[C@H]2O[C@@]34C=CCN(CCN5CCOCC5)C(=O)[C@H]3N(CCO)C(=O)[C@@H]4[C@@H]2C(=O)O1 | inactive | inactive | inactive |
| C[C@H]1O[C@H](O[C@H]2[C@H](O)[C@@H](O)[C@@H](O[C@H]3[C@H](O)[C@@H](O)[C@H](O)O[C@@H]3CO)O[C@@H]2CO)[C@H](O)[C@@H](O)[C@@H]1N[C@H]1C=C(CO)[C@@H](O)[C@H](O)[C@H]1O | inactive | inactive | inactive |
| COc1ccc(S(=O)(=O)Nc2ccc3c(c2)CC(=O)N([C@@H](C)CO)C[C@H](C)[C@@H](CN(C)S(=O)(=O)c2c(C)noc2C)O3)cc1 | inactive | inactive | inactive |
| Cc1ccc(S(=O)(=O)Nc2cccc3c2O[C@@H](CN(C)Cc2ccc(Cl)c(Cl)c2)[C@H](C)CN([C@H](C)CO)C3=O)cc1 | inactive | inactive | inactive |
| C[C@H]1CN([C@@H](C)CO)C(=O)c2cc(NC(=O)C3CC3)ccc2O[C@H]1CN(C)Cc1ccc2c(c1)OCO2 | inactive | inactive | inactive |
| C[C@@H]1CN([C@H](C)CO)C(=O)c2cc(NS(=O)(=O)c3ccc(F)cc3)ccc2O[C@@H]1CN(C)Cc1ccc(-c2ccccc2)cc1 | active | active | inactive |
| O=C(CN1CCOCC1)N[C@@H]1CC[C@@H](CCNS(=O)(=O)c2ccccc2F)O[C@H]1CO | inactive | inactive | inactive |
| CN1C2CCCC1CC(NC(=O)c1nn(C)c3ccccc13)C2.Cl (stereo not drawn) | inactive | inactive | inactive |
| C[C@@H]1CCCCO[C@H](CN(C)C(=O)Nc2ccccc2)[C@H](C)CN([C@@H](C)CO)C(=O)c2cc(NC(=O)Cc3ccccc3)ccc2O1 | inactive | inactive | inactive |
| CC(=O)N(CC(O)CO)c1c(I)c(C(=O)NCCO)c(I)c(C(=O)NCC(O)CO)c1I (stereo not drawn) | inactive | inactive | inactive |
| COc1ccc(S(=O)(=O)Nc2ccc3c(c2)CC(=O)N([C@H](C)CO)C[C@H](C)[C@@H](CN(C)S(=O)(=O)c2ccc(OC)cc2)O3)cc1 | inactive | inactive | inactive |
| COc1ccc(CN(C)C[C@H]2Oc3ccc(NS(=O)(=O)c4cn(C)cn4)cc3CC(=O)N([C@H](C)CO)C[C@H]2C)cc1 | inactive | inactive | inactive |

| Compound | cytotoxicity call (HSkMC) | cytotoxicity call (HepG2) | growth inhibition call (S. aureus RN4220) |
| --- | --- | --- | --- |
| Cc1nc2c(C)cccc2c2c1COC2 | inactive | inactive | inactive |
| C[C@H](CO)N1C[C@H](C)[C@@H](CN(C)Cc2ccc3c(c2)OCO3)OCCCC[C@H](C)Oc2ccc(NC(=O)Nc3ccc(C(F)(F)F)cc3)cc2C1=O | active | active | inactive |
| Cc1ccc(S(=O)(=O)N(C)C[C@@H]2OCCCC[C@H](C)Oc3ccc(NC(=O)NC4CCCCC4)cc3C(=O)N([C@@H](C)CO)C[C@H]2C)cc1 | inactive | active | inactive |
| C[C@H](CO)N1C[C@H](C)[C@@H](CN(C)C(=O)Cc2cccnc2)Oc2cc(-c3cncnc3)ccc2S1(=O)=O | inactive | inactive | inactive |
| Cc1ccc(S(=O)(=O)N[C@@H]2CC[C@H](CC(=O)N3CCC(Cc4ccccc4)CC3)O[C@H]2CO)cc1 | inactive | inactive | inactive |
| C[C@H](CO)N1C[C@H](C)[C@@H](CN(C)C(=O)NC2CCCCC2)Oc2ccc(NS(=O)(=O)c3cn(C)cn3)cc2C1=O | inactive | inactive | inactive |
| CC(C)(N)CN1CCCCC1 | inactive | inactive | inactive |
| C[C@H]1CN([C@@H](C)CO)C(=O)c2cc(C3=CCCCC3)cnc2O[C@H]1CN(C)S(=O)(=O)c1cn(C)cn1 | inactive | inactive | inactive |
| C[C@@H]1CN([C@H](C)CO)C(=O)c2cccc(NS(=O)(=O)c3ccc(F)cc3)c2O[C@@H]1CN(C)Cc1ccc(Oc2ccccc2)cc1 | inactive | inactive | inactive |
| C[C@H]1CN([C@@H](C)CO)C(=O)c2cccc(NS(=O)(=O)c3ccccc3)c2O[C@@H]1CN(C)CC1CC1 | inactive | inactive | inactive |
| C[C@H](CO)N1C[C@H](C)[C@@H](CN(C)CC2CCCCC2)OCCCC[C@H](C)Oc2ccc(NC(=O)CCCCCC(=O)Nc3ccccc3N)cc2C1=O | inactive | inactive | inactive |
| C[C@@H]1CCCCO[C@H](CN(C)C(=O)c2ccccc2)[C@H](C)CN([C@@H](C)CO)C(=O)c2cc(NC(=O)Nc3cccc4ccccc34)ccc2O1 | inactive | inactive | inactive |
| Cn1cnc([N+](=O)[O-])c1Sc1[nH]cnc2ncnc1-2 | inactive | active | inactive |
| O=C(C[C@H]1C[C@H]2c3cc(NC(=O)NC4CCCC4)ccc3O[C@H]2[C@H](CO)O1)NCc1ccc2c(c1)OCO2 | inactive | inactive | inactive |
| CN(C)C(CCOc1cccc2ccccc12)c1ccccc1.Cl (stereo not drawn) | inactive | active | inactive |
| C[C@@H]1CN([C@@H](C)CO)C(=O)c2cccc(NC(=O)C3CC3)c2O[C@@H]1CN(C)Cc1ccc(-c2ccccc2)cc1 | inactive | inactive | inactive |
| COCC#Cc1ccc2c(c1)O[C@H](CN(C)C(=O)c1ccccc1F)[C@@H](C)CN([C@H](C)CO)S2(=O)=O | inactive | inactive | inactive |
| NCC1CCN(Cc2ccccc2)CC1 | inactive | inactive | inactive |
| C[C@@H]1CCCCO[C@H](CN(C)Cc2ccc3c(c2)OCO3)[C@H](C)CN([C@@H](C)CO)C(=O)c2cc(NC(=O)Nc3ccc(C(F)(F)F)cc3)ccc2O1 | active | active | inactive |

| Compound | cytotoxicity call (HSkMC) | cytotoxicity call (HepG2) | growth inhibition call (S. aureus RN4220) |
| --- | --- | --- | --- |
| C[C@@H]1CN([C@H](C)CO)S(=O)(=O)c2ccc(-c3ccc(C(=O)N(C)C)cc3)cc2O[C@@H]1CN(C)C(=O)C1CC1 | inactive | inactive | inactive |
| CN1C(=O)Cc2cc(NS(C)(=O)=O)ccc21 | inactive | inactive | inactive |
| CN1CCN(C(=O)C[C@H]2CC[C@H]3[C@@H](COC[C@H](O)CN3C(=O)Nc3ccc4c(c3)OCO4)O2)CC1 | inactive | inactive | inactive |
| C[C@@H]1CN([C@H](C)CO)C(=O)c2cc(-c3cccc(C(=O)N(C)C)c3)cnc2O[C@H]1CN(C)C(=O)Cc1ccccn1 | inactive | inactive | inactive |
| Cc1noc(C)c1S(=O)(=O)N(C)C[C@H]1Oc2ccc(NC(=O)Nc3ccccc3)cc2CC(=O)N([C@@H](C)CO)C[C@H]1C | inactive | inactive | inactive |
| COc1ccc(S(=O)(=O)N(C)C[C@@H]2OCCCC[C@@H](C)Oc3ccc(NC(=O)c4ccccc4)cc3C(=O)N([C@H](C)CO)C[C@H]2C)cc1 | inactive | inactive | inactive |
| C[N+](C)(C)CCCCNC(=O)[C@H]1C[C@H]2C(=O)NCC(=O)N2[C@H]1c1ccc(O)cc1 | inactive | inactive | inactive |
| Cc1ccc(S(=O)(=O)C[C@H](C)N2CCOCC2)c(S(=O)(=O)C[C@@H](C)N2CCOCC2)c1 | inactive | inactive | inactive |
| C[C@H]1CN([C@@H](C)CO)C(=O)c2cccc(NC(=O)c3nc4ccccc4s3)c2O[C@@H]1CN(C)Cc1ccc(Cl)c(Cl)c1 | inactive | inactive | inactive |
| COc1ccc2c(C)cc(=O)oc2c1 | inactive | inactive | inactive |
| C[C@@H]1CN([C@@H](C)CO)C(=O)c2cc(NC(=O)C3CCCCC3)ccc2O[C@@H]1CN(C)C(=O)Nc1ccc(C(F)(F)F)cc1 | inactive | inactive | inactive |
| C[C@H](CO)N1C[C@H](C)[C@@H](CN(C)Cc2ccc(Cl)c(Cl)c2)Oc2c(NC(=O)Nc3ccc(C(F)(F)F)cc3)cccc2C1=O | active | active | inactive |
| C[C@@H]1CN([C@H](C)CO)C(=O)Cc2cc(NS(=O)(=O)c3cn(C)cn3)ccc2O[C@@H]1CN(C)S(C)(=O)=O | inactive | inactive | inactive |
| Cn1cnc(S(=O)(=O)N[C@H]2CC[C@H](CC(=O)Nc3ccccc3)O[C@H]2CO)c1 | inactive | inactive | inactive |
| C=CCC[C@H](Cc1ccc(F)cc1)C(=O)O[C@H](CNC(=O)[C@@H](CC=C)CC(=O)N[C@@H](CO)Cc1ccccc1)c1ccccc1 | inactive | inactive | inactive |
| Cc1noc(C)c1S(=O)(=O)N(C)C[C@@H]1Oc2ccc(NC(=O)Nc3ccc4c(c3)OCO4)cc2C(=O)N([C@@H](C)CO)C[C@@H]1C | inactive | inactive | inactive |
| O=C(Cc1ccc(-c2ccccc2)cc1)Nc1c(C(=O)Nc2ccc3c(c2)OCCO3)oc2ccccc12 | inactive | inactive | inactive |
| Cc1noc(C)c1NC(=O)N(C)C[C@@H]1Oc2c(NC(=O)C3CCOCC3)cccc2C(=O)N([C@H](C)CO)C[C@@H]1C | inactive | inactive | inactive |
